Measured values taken from PubChem BioAssay AID493208 (National Center for Advancing Translational Sciences (NCATS), 2011).
Screen size: about 44,000 compounds; about 340 (0.77%) were called active. Another 5% or so got no clear call; they are omitted. Calls come from the whole dose curve; as a rule, active = well fitted inhibition curve with a large enough effect; inconclusive = small, poorly fitted or top-dose-only effect; inactive = flat fitted curve, though single readings scatter. The list shows a part of the results.

Assay: Acumen qHTS Assay for Inhibitors of the mTORC1 Signaling Pathway in MEF (Tsc2-/-, p53-/-) Cells: Sytravon; note: nearly all actives have a fitted effect of over 50% in size;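 for activity change, negative = inhibition: plate controls were DMSO for no effect and rapamycin for full effect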
Conditions: phospho-rpS6 immunofluorescence/PI, 24 h; series mostly up to 38.3 µM; activity change, negative = inhibition: at the top concentration
Outline: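 Tsc2-/-, p53-/- MEFs (empty-vector stable line) in DMEM + 10% FBS were treated with compounds 24 h at 37 degree Celsius, fixed, and immunostained for phospho-rpS6 (Alexa-488) with propidium iodide counterstain. Laser-scanning cytometry gave % positive cells, normalized against 7.5 nM rapamycin and DMSO.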
Potency is the fitted concentration of half-maximal effect.

Row | SMILES | activity change, negative = inhibition | Potency
1 | Cc1cc(NC(=O)N2CCC(CN3CCCCCC3)CC2)ccc1Br | inactive: -3.71% | 
2 | O=C(Cn1ccc2cc(S(=O)(=O)N3CCCCCC3)ccc21)NCc1ccccc1Cl | inactive: -7.05% | 
3 | COc1cccc(NC(=O)c2c(C)nn(-c3cccc(C)c3)c2-n2cccc2)c1 | inactive: -0.0384% | 
4 | COc1cccc(CN2C(=O)CN(C3CCCCC3)C(=O)C2c2ccc(OC(C)C)c(OC)c2)c1 (stereo unspecified) | inactive: 2.23% | 
5 | COC(=O)c1ccc2c(=O)n(CCCCCC(=O)NCCc3ccccc3)c(=O)[nH]c2c1 | inactive: -0.446% | 
6 | CCC1Sc2ccccc2N(CC(=O)NCc2ccc(C)cc2)C1=O (stereo unspecified) | inactive: 2.67% | 
7 | O=S(=O)(c1ccc(Cl)cc1)c1nnn2c1nc(NC1CCCC1)c1sccc12 | inactive: -3.79% | 
8 | COc1ccc(C)cc1-n1c(-c2ccc(Cl)cc2)cc2c1CC(C)(C)CC2=O | inactive: 1.08% | 
9 | Cc1cccn2c(=O)c3cc(C(=O)NCC(C)C)sc3nc12 | inactive: 0.428% | 
10 | COc1ccc(N2CCN(C(CNS(=O)(=O)c3ccc(OC)c(C)c3)c3ccco3)CC2)cc1 (stereo unspecified) | inactive: -15.8% | 
11 | Nc1c(C(=O)Nc2ccccc2Br)sc2nc(-c3cccs3)ccc12 | inactive: -24.6% | 
12 | O=C(CSc1nc2c([nH]c3ccccc32)c(=O)n1-c1ccccc1)Nc1ccc2c(c1)OCO2 | inactive: -6.54% | 
13 | COc1ccc(-c2nc(Cn3c(=O)cc(C)c4c(C)nn(-c5ccccc5)c43)c(C)o2)cc1OC | inactive: -13.6% | 
14 | Cc1ccc(-n2nc(C)c3c(C)c(CCC(=O)NC(C)c4ccccc4)c(C)nc32)cc1 (stereo unspecified) | inactive: -5.76% | 
15 | Cc1ccc(NC(=O)Cn2c(=O)n(-c3ccc(C)cc3)c(=O)c3c2cnn3C)cc1 | inactive: 0.398% | 
16 | Cc1ccc(Cc2nc3ccccc3nc2SCC(=O)N2CCC(C)CC2)cc1 | inactive: 1.2% | 
17 | Cc1ccc(CNC(=O)c2ccc(CSc3nc4ccncc4n3Cc3ccc(C)cc3)cc2)cc1 | inactive: 5.44% | 
18 | COc1cccc(C(=O)Nc2ccc3nc(SCC(=O)N(C)c4ccccc4)sc3c2)c1 | inactive: -7.6% | 
19 | CCOc1ccc(NC(=O)c2c(C)oc3nc(C)nc(N4CCCC4)c23)cc1 | inactive: 7.89% | 
20 | O=C(NCCc1ccc(Cl)cc1)C1CCN(Cc2cc3ccccc3n2Cc2ccccc2)CC1 | inactive: -9.2% | 
21 | COc1ccc(CCNC(=O)CCc2cn(Cc3ccccc3Cl)c3ccccc23)c(OC)c1 | inactive: -4.36% | 

Row | SMILES | activity change, negative = inhibition | Potency
22 | CCOc1ccc(-c2cc(NC(=O)c3ccccc3)c(C(=O)OC)s2)cc1 | inactive: 1.17% | 
23 | COc1ccccc1CCNC(=O)c1cccn1-c1nnc(N2CCCC2)s1 | inactive: 1.22% | 
24 | CCCN(C(=O)c1cc(S(=O)(=O)N2CCc3ccccc32)cn1C)c1ccc(OCC)cc1 | inactive: 0% | 
25 | Cc1ccc(Cl)cc1N1CCN(c2ncnc3c2nc2n3CCCC2)CC1 | inactive: 5.03% | 
26 | Cc1ccccc1NC(=O)C(=O)NCC(c1ccc2c(c1)OCO2)N1CCN(c2ccccc2)CC1 (stereo unspecified) | inactive: -14.1% | 
27 | COc1ccc(CNC(=O)Cn2c(=O)oc3cc(S(=O)(=O)NCc4ccccc4)ccc32)cc1 | inactive: -13.2% | 
28 | CCOc1ccc(C2C(C(=O)Nc3ccccc3)=C(C)Nc3nc(-c4ccccc4Cl)nn32)cc1OC (stereo unspecified) | inactive: -5.25% | 
29 | CCOc1ccc(Nc2cc(C)nc3nncn23)cc1 | inactive: 2.9% | 
30 | COc1ccc(NC(=O)c2cc3c(-c4ccccc4F)nn(C)c3s2)c(OC)c1 | inactive: -0.063% | 
31 | Cc1ccccc1NC(=O)Cn1cc(S(=O)(=O)c2ccccc2)c(=O)c2ccccc21 | inactive: -6.37% | 
32 | FC(F)(F)c1cccc(N2CCN(c3ncnc4c3nc3n4CCCC3)CC2)c1 | inactive: 0.222% | 
33 | O=C(Cn1nc(C(F)(F)F)c2c1CCCC2)Nc1cccc(Cl)c1 | inactive: -17.8% | 
34 | Cc1ccccc1OCC(=O)Nc1cccc(C(=O)OCc2cc(=O)n3c(C)csc3n2)c1 | inactive: 3.85% | 
35 | COC(=O)c1ccccc1NC(=O)c1cc2cc(C)ccc2n1C | inactive: -6.64% | 
36 | CCOc1ccc(-c2c(C)nn3c(C)c(C(=O)NCCc4ccc(Cl)cc4)cnc23)cc1OCC | inactive: 0% | 
37 | O=C(Cn1c(=O)n(-c2ccc(Cl)cc2)c(=O)c2sc3ccccc3c21)NC1CCCC1 | inactive: 2.34% | 
38 | c1ccc(CN2CCN(c3ncnc4c3cnn4-c3ccccc3)CC2)cc1 | inactive: 13.7% | 
39 | CCc1nc2cccnc2n1-c1ccc(CC(=O)Nc2cccc(C)c2C)cc1 | inactive: -6.15% | 
40 | CCc1cccc(NC(=O)C2CCC(CNS(=O)(=O)c3ccc(Br)s3)CC2)c1 (stereo unspecified) | inactive: -18.3% | 
41 | Cc1ccc(NC(=O)c2cc(S(=O)(=O)N3CCc4ccccc43)cn2C)c(Cl)c1 | inactive: -22.5% | 
42 | CCc1ccc(-n2nc(CO)c(C(=O)NCCCc3ccccc3)n2)cc1 | inactive: 0.277% | 

Row | SMILES | activity change, negative = inhibition | Potency
43 | Cc1ccc(C)c(S(=O)(=O)c2nnn3c2nc(NC2CCCCC2)c2sccc23)c1 | inactive: -16.5% | 
44 | Cc1ccccc1Cn1c2ccccc2c2cnn(CC(=O)NCc3ccccn3)c(=O)c21 | inactive: 0.944% | 
45 | CCSc1ccccc1C(=O)Nc1ccc(-c2nc3ccccc3s2)c(O)c1 |  | active: 2.93 µM
46 | O=C(NCCc1ccccc1)C1CCC(CNS(=O)(=O)c2ccc(Cl)cc2)CC1 (stereo unspecified) | inactive: -1.67% | 
47 | Cc1ccc(C)c(N2CCN(C(=O)NCc3noc4ccc(C)cc34)CC2)c1 | inactive: -9.74% | 
48 | CCOC(=O)c1cccc(NC(=O)C2Cc3ccccc3N2C(=O)c2ccccc2)c1 (stereo unspecified) | inactive: 0% | 
49 | CCOc1ccc(C(=O)NC2CC(=O)N(c3ccc(C)cc3)C2)cc1OCC (stereo unspecified) | inactive: 1.08% | 
50 | Cc1ccc(Nc2nc3ccccc3c3nncn23)c(Cl)c1 | inactive: -1.75% | 
51 | Cc1ccc(-c2nc(NC(=O)CSc3nc(C)nc4sc5c(c34)CCCC5)ns2)cc1 | inactive: 2.66% | 
52 | CC1CCN(S(=O)(=O)c2ccc3c(ccn3CCC(=O)NCc3ccccc3F)c2)CC1 | inactive: -10.7% | 
53 | Cc1cccc(-n2ncc3c(Nc4ccc(C)c(Cl)c4)ncnc32)c1 | inactive: -9.54% | 
54 | COc1ccc(NC(=O)c2c(-c3ccccc3)c(-c3ccccc3)nn(C)c2=O)cc1OC | inactive: -1.7% | 
55 | Cc1sc2c(c1C)c(=O)n(Cc1ccccc1)c(=O)n2Cc1ccc(F)cc1 | inactive: -1.11% | 
56 | Cc1ccccc1CNC(=O)CN1C(=O)C2CCCCN2c2ccc(C(=O)N3CCCC3)cc21 (stereo unspecified) | inactive: -1% | 
57 | Cc1ccccc1NC(=O)CCS(=O)(=O)c1cc(Br)cc2c1N(C(=O)C1CC1)CC2 | inactive: -2.65% | 
58 | CCc1nn(CC(=O)N2CCCCC2)c(=O)c2cc3sc(C)cc3n12 | inactive: -5.91% | 
59 | Cc1ccc(C)c(Cn2c(=O)n(C(C)C)c(=O)c3oc4ccccc4c32)c1 | inactive: -0.811% | 
60 | O=C(Nc1ccc2c(c1)N(C1CCCC1)C(=O)c1ccccc1S2)c1ccccc1F | inactive: -4.36% | 
61 | COc1ccc(-c2cn3cccnc3n2)cc1NC(=O)Nc1ccc(Cl)cc1 | inactive: -5.66% | 
